Assay [1] deals with T1, small heat shock protein HspB7 (full-size) (UniProt Q9UBY9 1-170).
T1 construct: small heat shock protein HspB7, full-size; also called full-size HspB7; full-length HspB7; source: recombinant, expressed and purified as described earlier [25,34]
Put plainly: cross-linking; isolated proteins or equimolar mixture, 30 min at 30 °C in 25 mM HEPES/NaOH pH 7.4, 100 mM NaCl, 2 mM DTT, then 0.0125% glutaraldehyde 30 min at 30 °C; SDS gel and anti-HspB7 immunoblot; both purified.

The chains behind the UniProt entries cited, without tags or fusion partners. Where a name states a change or a piece, a line headed by the entry shows the natural chain unless it says otherwise. Residues count along the entry.
UniProt Q9UBY9: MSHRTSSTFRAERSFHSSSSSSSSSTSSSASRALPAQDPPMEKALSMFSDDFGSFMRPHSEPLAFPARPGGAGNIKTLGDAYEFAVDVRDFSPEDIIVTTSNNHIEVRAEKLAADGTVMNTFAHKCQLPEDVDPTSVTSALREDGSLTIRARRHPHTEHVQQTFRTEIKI
α-crystallin domain of HspB7 (AcdB7) containing residues 77-155: residues 77-155 of Q9UBY9

Assay [2] concerns the target α-crystallin domain of HspB7 (AcdB7) containing residues 77-155 (UniProt Q9UBY9). The description is as above.
The target in assay [3] is T1, small heat shock protein HspB7 …. In words: SEC; equimolar mixture of FLNC fragment and AcdB7 (30 µM each) or full-size HspB7, preincubated 30 min at 30 °C, Superdex 200 10/300, 0.5 mL/min, 50 mM Na-phosphate pH 7.4, 150 mM NaCl, 2 mM DTT, room temperature; peak fractions analysed by SDS gel; both purified.
In assay [4] the target is α-crystallin domain of HspB7 (AcdB7) containing residues 77-155 (UniProt Q9UBY9). Described as above.
Assay [5] addresses T1, small heat shock protein HspB7 …. In words: native gel or EMSA; fixed HspB7 (25 or 30 µM) or AcdB7 (35 µM) in 20 mM Tris-acetate pH 7.6, 100 mM NaCl titrated with 0-120 µM FLNC fragment, 30 min at 30 °C; native 12.5% polyacrylamide gel, Tris-glycine pH 8.6; band intensities, semi quantitative, apparent affinity; both purified.
Assay [6] concerns the target α-crystallin domain of HspB7 (AcdB7) containing residues 77-155 (UniProt Q9UBY9). The description is as above.

These are yes or no findings as the source states them, for the method shown. Some binding calls cover weakened binding; strength is not graded here.

B1: ΔPGL mutant (p.P2643_L2645del) of the FLNC fragment containing immunoglobulin-like domains 22-24 (domain or fragment, human, UniProt Q14315 2403-2725, looked up)
chain: SLSDDARRLTVTSLQETGLKVNQPASFAVQLNGARGVIDARVHTPSGAVEECYVSELDSDKHTIRFIPHENGVHSIDVKFNGAHIPGSPFKIRVGEQSQAGDPGLVSAYGPGLEGGTTGVSSEFIVNTLNAGSGALSVTIDGPSKVQLDCRECPEGHVVTYTPMAPGNYLIAIKYGGPQHIVGSPFKAKVTGPRLSGGHSLHETSTVLVETVTKSSSSRGSSYSSIPKFSSDASKVVTRGSQAFVGQKNSFTVDCSKAGTNMMMVGVHGPKTPCEEVYVKHMGNRVYNVTYTVKEKGDYILIVKWGDESVPGSPFKVKVP
notes: human filamin C (FLNC), Uniprot Q14315, residues 2403-2725, with deletion of the tripeptide 2643-PGL-2645 (mutation associated with restrictive cardiomyopathy); also called ΔPGL FLNC; c.7927_7935del; source: recombinant, expressed and purified as described earlier [23]; (ion-exchange and size-exclusion chromatography)
Take B1: the binding result was “binds” in assay [1]; “binds” in assay [2]; “binds” in assay [3]; “binds” in assay [4]; “binds weakly” in assay [5]; “binds weakly” in assay [6].

B2: EN/D mutant (p.Glu2472_Asn2473delinsAsp) of the FLNC fragment containing immunoglobulin-like domains 22-24 (domain or fragment, human, UniProt Q14315 2403-2725, looked up)
chain: SLSDDARRLTVTSLQETGLKVNQPASFAVQLNGARGVIDARVHTPSGAVEECYVSELDSDKHTIRFIPHDGVHSIDVKFNGAHIPGSPFKIRVGEQSQAGDPGLVSAYGPGLEGGTTGVSSEFIVNTLNAGSGALSVTIDGPSKVQLDCRECPEGHVVTYTPMAPGNYLIAIKYGGPQHIVGSPFKAKVTGPRLSGGHSLHETSTVLVETVTKSSSSRGSSYSSIPKFSSDASKVVTRGPGLSQAFVGQKNSFTVDCSKAGTNMMMVGVHGPKTPCEEVYVKHMGNRVYNVTYTVKEKGDYILIVKWGDESVPGSPFKVKVP
notes: human filamin C (FLNC), Uniprot Q14315, residues 2403-2725, with Glu2472 and Asn2473 replaced by Asp (mutation associated with restrictive cardiomyopathy); also called c.7416_7418delGAA; source: recombinant, expressed and purified as described earlier [23]; (ion-exchange and size-exclusion chromatography)
For B2, the binding entry in assay [1], in assay [2], in assay [3] and in assay [4] was “binds” in each case.

B3: Wmut (p.W2710X) mutant of the FLNC fragment containing immunoglobulin-like domains 22-24 (domain or fragment, UniProt Q14315 2403-2709)
chain: SLSDDARRLTVTSLQETGLKVNQPASFAVQLNGARGVIDARVHTPSGAVEECYVSELDSDKHTIRFIPHENGVHSIDVKFNGAHIPGSPFKIRVGEQSQAGDPGLVSAYGPGLEGGTTGVSSEFIVNTLNAGSGALSVTIDGPSKVQLDCRECPEGHVVTYTPMAPGNYLIAIKYGGPQHIVGSPFKAKVTGPRLSGGHSLHETSTVLVETVTKSSSSRGSSYSSIPKFSSDASKVVTRGPGLSQAFVGQKNSFTVDCSKAGTNMMMVGVHGPKTPCEEVYVKHMGNRVYNVTYTVKEKGDYILIVK
On to B3, for which the binding entry was “no binding” in assay [1], “no binding” in assay [3] and “no binding (tested: 0-120 µM FLNC fragment)” in assay [5].

B4: wild-type (WT) C-terminal fragment of human filamin C (FLNC) containing immunoglobulin-like domains 22-24 (domain or fragment, UniProt Q14315 2403-2725, looked up)
chain: SLSDDARRLTVTSLQETGLKVNQPASFAVQLNGARGVIDARVHTPSGAVEECYVSELDSDKHTIRFIPHENGVHSIDVKFNGAHIPGSPFKIRVGEQSQAGDPGLVSAYGPGLEGGTTGVSSEFIVNTLNAGSGALSVTIDGPSKVQLDCRECPEGHVVTYTPMAPGNYLIAIKYGGPQHIVGSPFKAKVTGPRLSGGHSLHETSTVLVETVTKSSSSRGSSYSSIPKFSSDASKVVTRGPGLSQAFVGQKNSFTVDCSKAGTNMMMVGVHGPKTPCEEVYVKHMGNRVYNVTYTVKEKGDYILIVKWGDESVPGSPFKVKVP
notes: human filamin C (FLNC), Uniprot Q14315, immunoglobulin-like domains 22-24, amino acid residues 2403-2725; Dimer by SEC and cross-linking; also called WT FLNC; WT FLNC fragment; source: recombinant, expressed and purified as described earlier [23]; (ion-exchange and size-exclusion chromatography)
Take B4: the binding result in assay [1], in assay [2], in assay [3] and in assay [4] was “binds” in each case.

The values above are taken from paper PMC12193154, “Effect of Mutations in the C-Terminal 22–24 Domains of Filamin C Associated with Cardio- and Myopathies on Its Interaction with Small Heat Shock Protein HspB7” (International Journal of Molecular Sciences, 2025).
